Results from paper PMC6511868.
These are yes or no findings as the source states them, for the method shown. In cells and extracts the contact can be indirect. Some binding calls cover weakened binding; strength is not graded here. For part of these data: Tags and fused reporters may be left off the sequences shown.

Sequences of proteins named here, by UniProt entry; tags and fusion partners are left off. A change or cut given only in a name is not applied to a line headed by its entry.
UniProt P32497: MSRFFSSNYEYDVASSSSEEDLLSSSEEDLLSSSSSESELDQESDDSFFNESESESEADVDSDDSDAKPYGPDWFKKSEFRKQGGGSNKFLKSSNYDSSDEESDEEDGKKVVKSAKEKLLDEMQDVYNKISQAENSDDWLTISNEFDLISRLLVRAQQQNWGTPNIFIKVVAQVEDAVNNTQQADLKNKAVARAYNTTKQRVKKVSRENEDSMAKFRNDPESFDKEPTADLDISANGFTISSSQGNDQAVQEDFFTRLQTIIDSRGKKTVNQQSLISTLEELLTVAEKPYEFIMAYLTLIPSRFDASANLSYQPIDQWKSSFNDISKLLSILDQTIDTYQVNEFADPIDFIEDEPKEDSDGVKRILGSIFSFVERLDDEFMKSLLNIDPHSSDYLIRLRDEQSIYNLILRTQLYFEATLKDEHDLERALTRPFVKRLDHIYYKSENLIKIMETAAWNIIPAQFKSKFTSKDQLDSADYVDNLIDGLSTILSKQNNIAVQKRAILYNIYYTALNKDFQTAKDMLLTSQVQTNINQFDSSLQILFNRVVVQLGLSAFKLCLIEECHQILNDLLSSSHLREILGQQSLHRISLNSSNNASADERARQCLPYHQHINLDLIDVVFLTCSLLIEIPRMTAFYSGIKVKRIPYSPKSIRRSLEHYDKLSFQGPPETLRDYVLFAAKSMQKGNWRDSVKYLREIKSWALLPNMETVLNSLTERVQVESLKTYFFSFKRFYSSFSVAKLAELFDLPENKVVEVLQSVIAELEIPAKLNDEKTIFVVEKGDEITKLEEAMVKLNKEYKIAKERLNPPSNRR
UniProt P05453: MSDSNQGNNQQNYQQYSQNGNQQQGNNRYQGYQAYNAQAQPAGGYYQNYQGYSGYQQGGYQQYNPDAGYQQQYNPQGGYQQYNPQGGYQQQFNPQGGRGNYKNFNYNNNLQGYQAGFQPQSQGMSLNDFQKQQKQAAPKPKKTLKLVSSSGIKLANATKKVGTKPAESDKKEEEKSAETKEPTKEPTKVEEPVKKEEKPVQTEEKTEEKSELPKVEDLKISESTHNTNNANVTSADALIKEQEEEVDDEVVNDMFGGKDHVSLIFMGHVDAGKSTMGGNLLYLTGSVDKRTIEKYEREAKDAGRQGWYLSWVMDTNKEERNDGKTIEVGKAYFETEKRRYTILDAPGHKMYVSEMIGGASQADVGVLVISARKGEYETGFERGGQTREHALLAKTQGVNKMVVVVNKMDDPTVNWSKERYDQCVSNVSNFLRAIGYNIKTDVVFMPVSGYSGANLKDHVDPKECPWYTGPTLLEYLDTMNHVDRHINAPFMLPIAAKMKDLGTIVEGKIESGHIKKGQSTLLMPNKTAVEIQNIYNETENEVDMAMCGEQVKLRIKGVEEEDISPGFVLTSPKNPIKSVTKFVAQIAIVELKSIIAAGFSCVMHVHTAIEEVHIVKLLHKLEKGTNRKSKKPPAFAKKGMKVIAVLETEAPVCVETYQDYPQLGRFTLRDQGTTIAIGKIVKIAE
UniProt Q05775: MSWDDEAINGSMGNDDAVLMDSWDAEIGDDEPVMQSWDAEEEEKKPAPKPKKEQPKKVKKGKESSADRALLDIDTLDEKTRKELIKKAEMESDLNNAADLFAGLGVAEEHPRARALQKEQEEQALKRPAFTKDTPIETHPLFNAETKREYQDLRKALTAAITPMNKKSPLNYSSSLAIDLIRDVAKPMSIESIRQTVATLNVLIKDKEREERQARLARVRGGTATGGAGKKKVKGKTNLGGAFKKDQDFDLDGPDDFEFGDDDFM
UniProt P12385: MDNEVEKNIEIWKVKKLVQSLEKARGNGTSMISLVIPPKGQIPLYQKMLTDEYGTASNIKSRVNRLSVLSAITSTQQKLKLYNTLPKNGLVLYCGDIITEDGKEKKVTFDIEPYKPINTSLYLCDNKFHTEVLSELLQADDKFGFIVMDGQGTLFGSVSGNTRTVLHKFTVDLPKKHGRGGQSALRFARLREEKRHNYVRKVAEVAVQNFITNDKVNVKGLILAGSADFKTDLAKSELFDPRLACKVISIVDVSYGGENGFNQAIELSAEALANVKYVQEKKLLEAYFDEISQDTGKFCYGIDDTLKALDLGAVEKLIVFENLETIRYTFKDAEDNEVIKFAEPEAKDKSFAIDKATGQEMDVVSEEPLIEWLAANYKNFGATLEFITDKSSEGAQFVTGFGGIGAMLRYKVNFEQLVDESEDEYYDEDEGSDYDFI
UniProt Q03195: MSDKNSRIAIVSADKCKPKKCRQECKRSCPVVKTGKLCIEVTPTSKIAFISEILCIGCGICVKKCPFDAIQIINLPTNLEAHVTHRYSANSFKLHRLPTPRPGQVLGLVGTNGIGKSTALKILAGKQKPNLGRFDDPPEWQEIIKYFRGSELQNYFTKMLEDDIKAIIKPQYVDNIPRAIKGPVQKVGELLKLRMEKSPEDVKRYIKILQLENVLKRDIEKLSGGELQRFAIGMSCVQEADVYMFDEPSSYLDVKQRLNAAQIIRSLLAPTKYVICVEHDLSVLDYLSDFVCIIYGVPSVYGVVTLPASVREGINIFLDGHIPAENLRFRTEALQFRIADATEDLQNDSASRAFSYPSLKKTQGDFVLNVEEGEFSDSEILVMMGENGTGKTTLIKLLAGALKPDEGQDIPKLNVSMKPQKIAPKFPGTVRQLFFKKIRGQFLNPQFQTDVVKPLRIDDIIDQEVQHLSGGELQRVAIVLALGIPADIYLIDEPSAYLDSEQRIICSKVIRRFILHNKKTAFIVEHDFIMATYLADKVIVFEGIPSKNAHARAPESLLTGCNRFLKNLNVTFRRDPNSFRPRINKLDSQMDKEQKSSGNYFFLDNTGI

What was measured:
Prt1-GFP (S. cerevisiae) [1] = biological target: Prt1-GFP (S. cerevisiae) (UniProt P06103); test: pull-down; Prt1-GFP and Nip1-GFP purified from yeast cells and precipitated, incubated with recombinantly expressed GST-Rli1, without or with AMP-PNP; western blot; only the target purified
Nip1-GFP (S. cerevisiae) = Nip1-GFP (S. cerevisiae) (UniProt P32497); test: as above
GST-Dbp5 (S. cerevisiae) [2] = biological target: T1, GST-Dbp5 (S. cerevisiae) (UniProt P20449); test: pull-down; GST-tagged proteins or GST on GSTrap 4B Glutathione Sepharose beads, incubated with E. coli lysates of His-eRF1 or His-eRF1Δ25 for 2 h at 4°C; 50 mM Tris-HCl pH 7.5, 150 mM NaCl, 2 mM MgCl, 5% glycerol, 1 mM DTT, 0.2% NP-40; with 1 mM AMP-PNP; western blot; only the target purified
T1 sequence: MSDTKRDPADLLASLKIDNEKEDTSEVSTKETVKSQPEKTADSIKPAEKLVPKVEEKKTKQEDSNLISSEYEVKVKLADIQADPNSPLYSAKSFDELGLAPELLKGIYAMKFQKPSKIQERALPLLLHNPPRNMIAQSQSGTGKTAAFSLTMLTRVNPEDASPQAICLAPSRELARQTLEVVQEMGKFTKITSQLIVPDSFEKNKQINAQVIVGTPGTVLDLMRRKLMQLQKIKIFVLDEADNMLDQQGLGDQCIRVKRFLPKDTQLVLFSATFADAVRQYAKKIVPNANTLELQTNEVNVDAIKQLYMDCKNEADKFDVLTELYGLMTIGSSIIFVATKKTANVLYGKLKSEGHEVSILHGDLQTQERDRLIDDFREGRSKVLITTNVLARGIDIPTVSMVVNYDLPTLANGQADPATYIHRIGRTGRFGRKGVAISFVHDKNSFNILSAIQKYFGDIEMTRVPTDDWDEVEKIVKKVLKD

[3] = biological target: GST-eRF3 (pGEX4T1-GST-SUP35) (S. cerevisiae) (UniProt P05453); test: as above
GST-Dbp5 (S. cerevisiae) [4] = biological target: T1, GST-Dbp5 (S. cerevisiae); test: pull-down; competition assay: eRF1 lysate incubated with GST-Dbp5 bound to the GSTrap for 20 min at 4°C, then purified eRF3ΔN65 added in increasing amounts, 1 h at 4°C; 1 mM AMP-PNP; only the target purified
GST-Dbp5 (S. cerevisiae) [5] = biological target: T1, GST-Dbp5 (S. cerevisiae); test: pull-down; as a4, but without AMP-PNP; only the target purified
[6] = biological target: GST-eRF3 (pGEX4T1-GST-SUP35) (S. cerevisiae) (UniProt P05453); test: as above
Prt1-GFP (S. cerevisiae) [7] = biological target: Prt1-GFP (S. cerevisiae) (UniProt P06103); test: co-IP; yeast lysates; GFP-Trap_A beads (GFP-tagged baits) or IgG-Sepharose (TAP-tagged baits), 3 h at 4°C, western blot; wild type and the strains sup45-2, rat8-2, rat7ΔN shifted to 37°C for 1 h; also 0.5 mg/ml cycloheximide for 30 min; also high copy RLI1
TAP-Dbp5 (S. cerevisiae) = biological target: T2, TAP-Dbp5 (S. cerevisiae) (UniProt P20449); test: co-IP; yeast lysate; TAP-Dbp5 precipitated (IgG-Sepharose), in the presence of RNase A (0.2 mg/ml, 30 min at 4°C), western blot
T2 sequence: T1 sequence

Prt1-GFP (S. cerevisiae) [8] = biological target: Prt1-GFP (S. cerevisiae) (UniProt P06103); test: co-IP; yeast lysate of sup45-2 cells; Prt1-GFP precipitated, western blot
Hcr1-GFP (S. cerevisiae) = Hcr1-GFP (S. cerevisiae) (UniProt Q05775); test: co-IP; yeast lysates; GFP-Trap_A beads (GFP-tagged baits) or IgG-Sepharose (TAP-tagged baits), 3 h at 4°C, western blot; wild type and the strains sup45-2, rat8-2, rat7ΔN shifted to 37°C for 1 h; also 0.5 mg/ml cycloheximide for 30 min; also high copy RLI1
[9] = biological target: T3, uL29 as bait of the co-IP of Figure 6C (tag not told) (S. cerevisiae) (UniProt P0CX84); test: as above
T3 sequence: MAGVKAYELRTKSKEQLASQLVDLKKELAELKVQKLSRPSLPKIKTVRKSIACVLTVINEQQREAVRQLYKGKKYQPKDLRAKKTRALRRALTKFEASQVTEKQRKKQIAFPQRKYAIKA

uS3-GFP (S. cerevisiae) = biological target: T4, uS3-GFP (S. cerevisiae) (UniProt P05750); test: as above
T4 sequence: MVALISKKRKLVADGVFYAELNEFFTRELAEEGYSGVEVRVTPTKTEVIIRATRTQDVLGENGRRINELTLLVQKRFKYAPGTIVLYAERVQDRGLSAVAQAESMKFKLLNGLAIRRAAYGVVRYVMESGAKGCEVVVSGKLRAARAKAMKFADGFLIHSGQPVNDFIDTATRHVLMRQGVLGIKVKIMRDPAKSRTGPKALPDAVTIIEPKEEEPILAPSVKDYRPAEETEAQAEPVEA

eRF1-GFP (S. cerevisiae) = eRF1-GFP (S. cerevisiae) (UniProt P12385); test: as above
[10] = biological target: T5, Dbp5 as precipitated in the Dbp5 IPs (tag not told) (S. cerevisiae) (UniProt P20449); test: as above
T5 sequence: T1 sequence

Row | Substance | binding (GST-Dbp5 (S. cerevisiae) [2]) | binding [3] | binding (Prt1-GFP (S. cerevisiae) [7]) | binding (TAP-Dbp5 (S. cerevisiae)) | binding (Prt1-GFP (S. cerevisiae) [8]) | binding (uS3-GFP (S. cerevisiae)) | other results
1 | GST-Rli1 (pGEX-6P-1-GST-RLI1) (from UniProt Q03195 1-608) |  |  |  |  |  |  | binding (Prt1-GFP (S. cerevisiae) [1]): binds; binding (Nip1-GFP (S. cerevisiae)): binds
2 | His-eRF1 (pET28a-HIS6-SUP45) (from UniProt P12385 1-437) | binds | binds |  |  |  |  | binding (GST-Dbp5 (S. cerevisiae) [4]): binds; binding (GST-Dbp5 (S. cerevisiae) [5]): no binding (condition: without AMP-PNP); binding [6]: binds
3 | Rli1-HA (from UniProt Q03195 1-608) |  |  | binds | binds | no binding (condition: in sup45-2 cells) |  | 
4 | His-eRF1Δ25 (pET15b-HIS6-SUP45 delta 25; eRF1 lacking 25aa at the C-terminus) (from UniProt P12385 1-412) (domain or fragment) | no binding | no binding |  |  |  |  | 
5 | eukaryotic release factor 3 (eRF3) (from UniProt P05453 1-685) |  |  | binds |  | no binding (condition: in sup45-2 cells) | binds | binding (Hcr1-GFP (S. cerevisiae)): binds; binding [9]: binds; binding (eRF1-GFP (S. cerevisiae)): binds
6 | eukaryotic release factor 1 (eRF1) (from UniProt P12385 1-437) |  |  |  | binds |  | binds | binding [10]: binds
